Reference: PubChem BioAssay AID504832 (National Center for Advancing Translational Sciences (NCATS), 2011)
Among all 310,000 compounds or so, about 18,000 (5.8%) were called active. The shares of active, inactive and inconclusive entries below differ from those in the screen. Calls come from the whole dose curve; as a rule, active = well fitted inhibition curve with a large enough effect; inconclusive = small, poorly fitted or top-dose-only effect, or another doubt; inactive = no such curve, though single readings can be large or run the other way. Potencies of inconclusive entries are left out as doubtful fits.

Assay: Primary qHTS for delayed death inhibitors of the malarial parasite plastid, 48 hour incubation
Conditions: P. falciparum luciferase growth in erythrocytes; series mostly up to 28.7 µM; activity change, negative = inhibition: at the top concentration
Outline: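 Luciferase-expressing parasites in RBCs, 2% Hct / 0.1% parasitemia final; RPMI 1640 + 0.5% Albumax; 37 C, 5% CO2, one generation; luminescence read-out, lower signal = inhibition.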
% is set by controls: 0 for no effect and ±100 for the full control effect; potency is the fitted concentration of half-maximal effect; tags give direction and shape of the fitted curve.

Structure (SMILES) | Potency | activity change, negative = inhibition
COc1ccc(N2C(=O)[C@@H]3[C@H](C2=O)[C@H](C(C)=O)N2c4ccccc4C=C[C@@H]32)cc1 | inconclusive [inhibitor, single point] | –
CC1CC(C)(C)CC2(C1)NC(=O)N(CC(=O)N(Cc1ccccc1)c1ccccc1)C2=O (centres undefined) | inconclusive [inhibitor, single point] | –
N=C(N=C(N)N)N1CCc2ccccc21 | inconclusive [inhibitor, partial curve] | –
COc1ccc(NC2=C(NC(C)=O)C(=O)c3ccccc3C2=O)cc1 | inconclusive [inhibitor, partial curve, poor fit] | –
OCCN1CCN(CC(O)COc2ccc(C34CC5CC(CC(C5)C3)C4)cc2)CC1 (centres undefined) | inconclusive [inhibitor, single point] | –
Cn1c(=O)n(C)c2cc(NS(=O)(=O)c3ccc(C(C)(C)C)cc3)ccc21 | inconclusive [inhibitor, single point] | –
CN(C)S(=O)(=O)c1ccc(C(=O)OCC(=O)Nc2ccc3c(c2)OCO3)cc1 | inconclusive [inhibitor, partial curve, poor fit] | –
CCOC(=O)c1cnc2ccc(OCC)cc2c1NCCN1CCOCC1 | inconclusive [inhibitor, single point] | –
COc1ccc(OC)c(/C=C2\SC(N3CCCC(C)C3)=NC2=O)c1 (centres undefined) | inconclusive [inhibitor, partial curve, poor fit] | –
COc1cccc(NC(=O)CN2CCN(c3ccccc3F)CC2)c1 | – | inactive: -8.73%
Cc1cc2nc3n(c2cc1C)CC1CC(C(=O)NCc2cccc(Br)c2)N(C)C31 (centres undefined) | inconclusive [inhibitor, single point] | –
COc1ccc2oc(C(=O)OCC(=O)N(CCC#N)c3ccccc3)c(C)c2c1 | inconclusive [inhibitor, partial curve, poor fit] | –
CN1C(=O)C(C)(C)c2cc(S(=O)(=O)N3CCCC(C(=O)NCc4ccc(F)cc4)C3)ccc21 (centres undefined) | inconclusive [inhibitor, partial curve] | –
COc1ccnc(Oc2ccc(F)cc2)c1C(=O)N/C=N/OCc1ccc(F)cc1Cl | inconclusive [inhibitor, partial curve] | –
Cc1c(CCOC(=O)CC23CC4CC(CC(C4)C2)C3)sc[n+]1CC(=O)c1ccccc1 | active: 13.1 µM | –
CCn1c(N2CCN(S(=O)(=O)c3ccccc3C(F)(F)F)CC2)nc2ccccc21 | inconclusive [inhibitor, single point] | –
CCc1nc(Nc2ccccc2OC)c2oc3ccccc3c2n1 | inconclusive [inhibitor, single point] | –
S=C(NC1CCCCC1)N1CCc2ccccc2C1 | – | inactive: 42.8%
Cc1cc(C(=O)O)ccc1-n1c(C)cc(/C=C(/C#N)C(=O)Nc2ccccc2)c1C | inconclusive [inhibitor, single point] | –
CCOC(=O)C1=C(CC)OC(N)=C(C#N)C1c1ccc(OC)c(C)c1OC (centres undefined) | inconclusive [inhibitor, partial curve] | –
O=C(NCc1ccccc1F)c1ccc2ccccc2n1 | – | inactive: 21.6%
N#C/C=C(/c1ccc(F)cc1)N1CCOCC1 | inconclusive [inhibitor, full curve, poor fit] | –

Structure (SMILES) | Potency | activity change, negative = inhibition
Cc1ccc(S(=O)(=O)N2CCN(C)CC2)c2nsnc12 | – | inactive: 18.8%
O=C(O)c1ccccc1C(=O)Nc1n[nH]c(=S)s1 | – | inactive: 2.73%
Cc1ccccc1NC(=O)OCCN1CCN(Cc2ccccc2)CCC1=O | – | inactive: 17.8%
CCCOP(=O)(OCCC)c1nc(-c2ccccc2)oc1NCc1ccccc1 | active: 5.86 µM | –
CCCCC(=O)Nc1nc(C)c(-c2csc(Nc3cc(OC)ccc3OC)n2)s1 | active: 1.04 µM | –
O=C(c1cc(-c2ccc(Cl)cc2)nc2ccccc12)N1CCC1 | inconclusive [inhibitor, single point] | –
O=C(CCl)N1c2ccccc2CCc2ccccc21 | active: 10.4 µM | –
COc1cccc(Nc2nnc(SCC3CCCCO3)s2)c1 (centres undefined) | – | inactive: 7.39%
COc1cccc(C(=O)NC2CCN(C(=O)N3CCCCC3)CC2)c1 | inconclusive [inhibitor, partial curve, poor fit] | –
CSc1nc(-c2ccccc2)nc(NC(C)=O)c1C(C)=O | – | inactive: 5.51%
CCC1Cc2c(nc(N)c3c(N)nc(N4CCCCC4)c(C#N)c23)O1 (centres undefined) | inconclusive [inhibitor, partial curve] | –
CCNc1ccc(C(=O)Nc2ccc3nc(C)sc3c2)cc1[N+](=O)[O-] | inconclusive [inhibitor, single point] | –
CC(=O)Nc1ccc(NC(=O)CSc2nnc(-c3cc(C)[nH]n3)n2N)cc1 | – | inactive: -2.42%
O=c1[nH]c(Cc2cccc(C(F)(F)F)c2)nc2ccccc12 | inconclusive [inhibitor, single point] | –
CCOC(=O)c1c(C2CC2)csc1NC(=O)CSCc1c(C)noc1C | inconclusive [inhibitor, partial curve, poor fit] | –
CN(CC(=O)Nc1ccccc1C(F)(F)F)C(=O)c1cccc(-n2cccc2)c1 | – | inactive: -4.18%
COc1ccc(OC)c(NC(=O)CSc2nc3ccccc3c(=O)n2CCNC(C)=O)c1 | inconclusive [inhibitor, partial curve, poor fit] | –
CCc1ccc(/C=C/c2c([N+](=O)[O-])c(=O)n(C)c(=O)n2C)cc1 | active: 2.33 µM | –
Cc1ccc(S(=O)(=O)N2CCN(C(C(=O)Nc3ccc(F)cc3)c3ccccc3)CC2)cc1 (centres undefined) | inconclusive [inhibitor, single point] | –
CCOCCCNC1=C(Cl)C(=O)c2ccccc2C1=O | active: 3.7 µM | –
COc1ccc(CCn2c(=S)[nH]c3cc(C(=O)NCc4ccco4)ccc3c2=O)cc1OC | inconclusive [inhibitor, partial curve, poor fit] | –
CN(C)c1nc(NCc2ccccc2)nc(N/N=C/c2ccccc2F)n1 | inconclusive [inhibitor, partial curve] | –
